From PubChem BioAssay AID652025 (National Center for Advancing Translational Sciences (NCATS), 2013)
Among all 360,000 compounds or so, about 240 (0.067%) were called active. This list was built around the results that the source calls inconclusive (neither active nor inactive); the mix of calls is not that of the screen. No stated cut-off is given here; in the data, active means activation above about 50%; inconclusive means mostly about 30% to 49%; inactive means weaker than that.

Assay: qHTS of IL-2 Activators; further: 0% is about no effect
Conditions: IL-2 activation reporter assay, cell-based qHTS; hits give high values; in transgenic mouse T cells; stimulated with anti-CD3/CD4/CD28 beads
In short: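 Quantitative HTS in unstimulated transgenic mouse T cells, with memory T cells as non-tolerant control and PMA/ionomycin as tolerance-bypass control. Compound pretreatment lasted 60 minutes before 18 h bead stimulation; EGFP/DsRed fluorescence read.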

| Compound | activation |
| --- | --- |
| COC(=O)Cn1c(C)c(/C=C/c2cc[n+](C)cc2)c2ccccc21 | active: 222% |
| CC(C)OC(=O)C(C#N)c1nc2ccccc2nc1N1CCN(Cc2ccccc2)CC1 (centres undefined) | inconclusive: 36.1% |
| Cc1cc(C)n(-c2nc3ccccc3nc2Nc2ccc3[nH]c(=O)[nH]c3c2)n1 | inconclusive: 42.1% |
| O=C(Nc1ccc(Oc2ncnc3cc(Cl)ccc23)nc1)c1ccc(F)cc1 | inconclusive: 32.6% |
| COc1cccc(/C=C2\C(=O)C(=O)c3ccccc32)c1 | inconclusive: 49.5% |
| CCN(CC)c1ccc(/C=C(\C#N)C(=O)c2ccc(Br)cc2)cc1 | inconclusive: 33% |
| COc1cccc(C(=O)C2CCCN(Cc3cccc(-n4nc(C)cc4C)c3)C2)c1 (centres undefined) | inconclusive: 41% |
| Cc1cc(C(=O)Nc2cccnc2)on1 | inconclusive: 48.1% |
| CC(C)n1cc(/C=C/c2cc[n+](C)cc2)c2ccccc21 | active: 295% |
| CCC1C/C(=C\c2cc(OC)c(OC)cc2OC)C(=O)/C(=C/c2cc(OC)c(OC)cc2OC)C1 (centres undefined) | inactive: -2.02% |
| NC(=O)c1sc2nnc(-c3ccccc3)c(-c3ccccc3)c2c1N | inconclusive: 41.2% |
| Nc1c(C(=O)c2ccc(Cl)cc2)sc2nsc(SCCN3CCOCC3)c12 | inconclusive: 32% |
| CCOC(=O)c1c(-c2ccccc2)csc1NC(=O)/C(C#N)=C/c1ccc(O)c(OC)c1 | active: 57.6% |
| O=C(OCC(=O)c1ccco1)c1ccc2ncsc2c1 | inconclusive: 31.5% |
| CCC(C)[C@H](NC(=O)NCc1ccccc1Cl)C(=O)OC (some centres undefined) | inconclusive: 36.9% |
| Cc1ccc(OCCCCn2ccnc2C)c(C)c1 | inactive: -0.759% |
| Cc1ccc(C(=O)N/N=C\c2ccc(-c3ccc([N+](=O)[O-])cc3)o2)cn1 | inconclusive: 41.6% |
| CCOc1cc(/C=C(\C#N)c2nc(-c3cccs3)c(NC(C)=O)s2)ccc1O | inconclusive: 36.1% |
| CCCc1cc(-n2cnc3ccccc32)n2c(nc3ccccc32)c1C#N | inconclusive: 35.2% |
| CCN1/C(=C2/SC(=S)N(NC(C)=O)C2=O)Sc2ccccc21 | inconclusive: 44% |
| CC(=O)c1cccc(NC(=S)NC(=O)c2cccc(C)c2)c1 | inactive: -0.0005% |
| COCCNC(=O)c1c(NC(=O)c2nc(SC)ncc2Cl)sc2c1CCCC2 | inconclusive: 37.1% |
| CCC(=O)NC(c1ccc(C)cc1)c1cc([N+](=O)[O-])c2cccnc2c1O (centres undefined) | active: 147% |
| COc1ccc(-n2c(N)c(C#N)c3ccc([N+](=O)[O-])cc3c2=O)cc1 | inconclusive: 31.2% |
